Scores whose standard error is large were omitted. Two further conditions of the source, in which the scores hardly spread, are not listed. Names with del lack the residues named; names with ins carry added residues between the positions named. For some assays here: The data file names ogerin without a concentration.

Experimental findings from the GPR68 mutational scans of Howard et al. (2025) are described below.

B1: GPR68, Q15743 (parent)
chain: MGNITADNSSMSCTIDHTIHQTLAPVVYVTVLVVGFPANCLSLYFGYLQIKARNELGVYLCNLTVADLFYICSLPFWLQYVLQHDNWSHGDLSCQVCGILLYENIYISVGFLCCISVDRYLAVAHPFRFHQFRTLKAAVGVSVVIWAKELLTSIYFLMHEEVIEDENQHRVCFEHYPIQAWQRAINYYRFLVGFLFPICLLLASYQGILRAVRRSHGTQKSRKDQIQRLVLSTVVIFLACFLPYHVLLLVRSVWEASCDFAKGVFNAYHFSLLLTSFNCVADPVLYCFVSETTHRDLARLRGACLAFLTCSRTGRAREAYPLGAPEASGKSGAQGEEPELLTKLHPAFQTPNSPGSGGFPTGRLA

In series [1] the parent is B1. Kind of series: cAMP reporter score (Enrich2 score, wild type = 0); higher = more signal; HEK293T, FACS bins.
The variants in series [2] derive from B1. Kind of series: surface expression score (Enrich2 score, wild type = 0); higher = more signal; HEK293T, FACS bins.

With H294T, the cAMP reporter score in series [1] (pH 5.5) is -0.472; in series [1] (pH 6), -0.403; in series [1] (pH 6, modulator: ogerin) it was -1.08; in series [1] (pH 6.5, modulator: ogerin), -0.948. The surface expression score in series [2] turned out to be 1.22.

For the variant H294C, the cAMP reporter score in series [1] (pH 5.5) is -0.29; in series [1] (pH 6), 0.018; in series [1] (pH 6, modulator: ogerin) it was -0.367; in series [1] (pH 6.5, modulator: ogerin) it was -0.841. In addition, the surface expression score in series [2] was determined as 0.354.

For the variant H294S, the cAMP reporter score in series [1] (pH 5.5) was -0.268; in series [1] (pH 6) it was -0.211; in series [1] (pH 6, modulator: ogerin), -0.696; in series [1] (pH 6.5, modulator: ogerin), 0.552. For the same variant, the surface expression score in series [2] was 1.15.

Take H294K: the cAMP reporter score in series [1] (pH 5.5) came to 0.614; in series [1] (pH 6) it was 1.76; in series [1] (pH 6, modulator: ogerin) it was 0.646; in series [1] (pH 6.5, modulator: ogerin), 1.03. Also, the surface expression score in series [2] was found to be 1.14.

For H294A, the cAMP reporter score in series [1] (pH 5.5) is -0.211; in series [1] (pH 6), -1.06; in series [1] (pH 6, modulator: ogerin), -0.029; in series [1] (pH 6.5, modulator: ogerin), -1.05. For the same variant, the surface expression score in series [2] came out at 1.49.

Take H294Q: the cAMP reporter score was found to be 1.62 in series [1] (pH 5.5); 0.082 in series [1] (pH 6); 1.25 in series [1] (pH 6, modulator: ogerin). In addition, the surface expression score in series [2] stood at 0.816.

For the variant H294N, the cAMP reporter score in series [1] (pH 5.5) was 0.939; in series [1] (pH 6), -1.12; in series [1] (pH 6, modulator: ogerin), 0.858; in series [1] (pH 6.5, modulator: ogerin), -0.143. Besides, the surface expression score in series [2] is 2.02.

Consider H294R, for which the cAMP reporter score came to 0.462 in series [1] (pH 5.5); 1.28 in series [1] (pH 6); 0.134 in series [1] (pH 6, modulator: ogerin); 1.39 in series [1] (pH 6.5, modulator: ogerin). Also, the surface expression score in series [2] was 0.145.

In the case of H294E, the cAMP reporter score in series [1] (pH 5.5) is -0.082; in series [1] (pH 6), -0.178; in series [1] (pH 6, modulator: ogerin), -0.104; in series [1] (pH 6.5, modulator: ogerin), -0.76. Further, in series [2], the surface expression score worked out at 1.13.

In the case of H294F, the cAMP reporter score was -0.944 in series [1] (pH 5.5); -1.15 in series [1] (pH 6); -1.2 in series [1] (pH 6.5, modulator: ogerin). Also, the surface expression score in series [2] amounted to 0.126.

Turning to L297_A298insGS, the cAMP reporter score was -1.06 in series [1] (pH 5.5); -0.53 in series [1] (pH 6); -1.53 in series [1] (pH 6, modulator: ogerin); -1.56 in series [1] (pH 6.5, modulator: ogerin). Further, the surface expression score in series [2] was -0.597.

On to T293_H294del, for which the cAMP reporter score in series [1] (pH 5.5) was -1.62; in series [1] (pH 6) it was -1.13; in series [1] (pH 6, modulator: ogerin), -2.32; in series [1] (pH 6.5, modulator: ogerin) it was -0.867. Also, the surface expression score in series [2] is 0.424.

Consider F307G, for which the cAMP reporter score was determined as 1.03 in series [1] (pH 5.5); 0.508 in series [1] (pH 6); 0.914 in series [1] (pH 6, modulator: ogerin); 0.495 in series [1] (pH 6.5, modulator: ogerin). Further, in series [2], the surface expression score came to 0.086.

For F307D, the cAMP reporter score is -0.435 in series [1] (pH 5.5); 0.022 in series [1] (pH 6); -0.081 in series [1] (pH 6, modulator: ogerin); -0.22 in series [1] (pH 6.5, modulator: ogerin). The surface expression score in series [2] was -0.081.

F307E: the cAMP reporter score in series [1] (pH 5.5) turned out to be 0.759; in series [1] (pH 6), 0.323; in series [1] (pH 6, modulator: ogerin), 1.3; in series [1] (pH 6.5, modulator: ogerin), 0.702. Besides, the surface expression score in series [2] is 1.41.

For the variant F307A, the cAMP reporter score in series [1] (pH 5.5) is 0.119; in series [1] (pH 6), -0.068; in series [1] (pH 6, modulator: ogerin), 0.752; in series [1] (pH 6.5, modulator: ogerin), -0.034. The surface expression score in series [2] worked out at 0.165.

As for F307C, the cAMP reporter score in series [1] (pH 5.5) was 0.211; in series [1] (pH 6) it was -1.05; in series [1] (pH 6, modulator: ogerin), -0.684; in series [1] (pH 6.5, modulator: ogerin) it was -0.694. For the same variant, the surface expression score in series [2] was -0.649.

On to T293Y, for which the cAMP reporter score was -0.858 in series [1] (pH 5.5); -0.741 in series [1] (pH 6); -0.986 in series [1] (pH 6, modulator: ogerin); -1.55 in series [1] (pH 6.5, modulator: ogerin). The surface expression score in series [2] was -0.331.

T293R: the cAMP reporter score in series [1] (pH 5.5) was 0.079; in series [1] (pH 6), -0.723; in series [1] (pH 6, modulator: ogerin) it was 0.265; in series [1] (pH 6.5, modulator: ogerin) it was -0.415. In addition, the surface expression score in series [2] was -0.448.

Consider T293V, for which the cAMP reporter score in series [1] (pH 5.5) was -0.868; in series [1] (pH 6), -0.38; in series [1] (pH 6, modulator: ogerin) it was -1.08; in series [1] (pH 6.5, modulator: ogerin), -0.931. Further, in series [2], the surface expression score was -0.826.

Regarding T293S, the cAMP reporter score in series [1] (pH 5.5) worked out at 3.69; in series [1] (pH 6, modulator: ogerin), 3.27; in series [1] (pH 6.5, modulator: ogerin) it was 0.41. In addition, the surface expression score in series [2] is 3.53.

For the variant T293W, the cAMP reporter score is -0.111 in series [1] (pH 5.5); -1.25 in series [1] (pH 6); -0.967 in series [1] (pH 6, modulator: ogerin); -1.12 in series [1] (pH 6.5, modulator: ogerin). For the same variant, the surface expression score in series [2] turned out to be 0.198.

Take H294_R295insGSG: the cAMP reporter score is -1.41 in series [1] (pH 5.5); -0.975 in series [1] (pH 6); -1.36 in series [1] (pH 6, modulator: ogerin); -0.976 in series [1] (pH 6.5, modulator: ogerin). In addition, in series [2], the surface expression score is 0.08.

Regarding D296_L297insG, the cAMP reporter score in series [1] (pH 5.5) was 0.034; in series [1] (pH 6), -1.92; in series [1] (pH 6, modulator: ogerin), -0.305; in series [1] (pH 6.5, modulator: ogerin), -1.05. Moreover, the surface expression score in series [2] amounted to 1.12.

Take C304_L305insGS: the cAMP reporter score is -0.53 in series [1] (pH 5.5); -0.458 in series [1] (pH 6); -0.624 in series [1] (pH 6, modulator: ogerin); -0.596 in series [1] (pH 6.5, modulator: ogerin). In addition, the surface expression score in series [2] was -0.425.

Consider A298_R299insG, for which the cAMP reporter score in series [1] (pH 5.5) was -0.804; in series [1] (pH 6), -1.22; in series [1] (pH 6, modulator: ogerin), -0.78; in series [1] (pH 6.5, modulator: ogerin) it was -1.17. Also, the surface expression score in series [2] came out at 0.42.

As to D296H, the cAMP reporter score in series [1] (pH 5.5) was 0.252; in series [1] (pH 6, modulator: ogerin), -0.136; in series [1] (pH 6.5, modulator: ogerin), 0.835. Besides, the surface expression score in series [2] is -0.957.

For D296V, the cAMP reporter score in series [1] (pH 5.5) was 1.08; in series [1] (pH 6), -0.151; in series [1] (pH 6, modulator: ogerin), -0.677; in series [1] (pH 6.5, modulator: ogerin) it was 0.464. In series [2], the surface expression score was -2.25.

As for D296Q, the cAMP reporter score in series [1] (pH 5.5) was found to be 0.904; in series [1] (pH 6) it was 3.23; in series [1] (pH 6, modulator: ogerin), 3.02; in series [1] (pH 6.5, modulator: ogerin) it was 2.72. The surface expression score in series [2] was -0.101.

D296M: the cAMP reporter score in series [1] (pH 5.5) is 0.168; in series [1] (pH 6), -0.141; in series [1] (pH 6, modulator: ogerin) it was -0.038. The surface expression score in series [2] was -1.03.

Regarding D296N, the cAMP reporter score in series [1] (pH 5.5) was 2.08; in series [1] (pH 6, modulator: ogerin), 0.972; in series [1] (pH 6.5, modulator: ogerin) it was 0.536. Further, the surface expression score in series [2] amounted to 1.92.
